Among the data in publication PMC9574860, “Chemical Toolkit for PARK7: Potent, Selective, and High-Throughput” (Journal of Medicinal Chemistry, 2022) are Inhibition % values, retold here.

Screen size: about 7,900 compounds; about 400 (5.1%) showed an effect of 50% or more. This is one part of the list.

Chain of Parkinson's disease protein 7 (PARK7/DJ1) (Q99497 whole entry, looked up, the tested form may be a part): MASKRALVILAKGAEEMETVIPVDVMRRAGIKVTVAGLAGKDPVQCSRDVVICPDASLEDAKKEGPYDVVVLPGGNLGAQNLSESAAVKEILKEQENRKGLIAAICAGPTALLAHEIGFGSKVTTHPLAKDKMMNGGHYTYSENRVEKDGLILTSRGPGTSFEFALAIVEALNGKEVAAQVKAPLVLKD

The target of this assay is Parkinson's disease protein 7 (PARK7/DJ1) (human, UniProt Q99497). Description: primary screen, percent inhibition; read as competition with a fluorescent probe by fluorescence polarization; higher = more effect of the substance. As to conditions: 100 µM. Summed up:
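Fluorescence-polarization probe displacement (JYQ-107, 20 nM final, 2 h) after 2 h preincubation of PARK7 (0.2 μM final) with each fragment at 100 μM final. Read-out ex/em 480/520 nm; remaining activity derived from FP signal loss relative to reference controls.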
Regarding `CN(CC1COc2ccccc2O1)C(=O)CCl` (stereo not shown), the Inhibition % is on record as 96.7%.
The value for `C=CC(=O)N[C@@H]1CCO[C@H]1c1ccc(OC)nc1` (racemic) was 7.53%.
With `CCOc1ccccc1OS(=O)(=O)c1ncn(C)c1Cl`, the Inhibition % worked out at 6.17%.
The same measure for `C=CC(=O)N1CCOCC1c1ncn(Cc2ccccc2)n1` (stereo not shown): 9.27%.
The value for `O=S(=O)(C=Cc1ccccc1)NC1CCCSC1` (stereo not shown) was 6.78%.
`Cc1ncc(C(=O)NS(=O)(=O)C=Cc2ccccc2)s1`: the Inhibition % stood at 12.5%.
The same measure for `C=CC(=O)NCC(C)(O)c1cnn(C)c1` (stereo not shown): 7.37%; for `C=CC(=O)N(C)CC1CCCOC1` (stereo not shown): 3.5%; for `CC(C)C(NC(=O)Cn1cnc(C#N)n1)c1cccs1` (stereo not shown): -3.14%.
Regarding `O=C(CCl)c1ccc(Cl)s1`, the Inhibition % was 94.6%.
In the case of `Cc1cc(B2OC(C)(C)C(C)(C)O2)ccc1S(N)(=O)=O`, the Inhibition % is recorded as -0.734%.
The same measure for `Nc1cc(S(=O)(=O)F)c(F)cc1NC1CC1`: 41.5%; for `C=CC(=O)NC(C)c1nc2ccccc2n1C(F)F` (stereo not shown): 12%.
In the case of `OB(O)c1cc(F)ccc1OCC1CCCCO1` (stereo not shown), the Inhibition % is listed as 1.56%.
As for `N#Cc1ccc(N[C@H]2CC[C@@H](C(=O)N3CCCC3)C2)cn1`, the Inhibition % is on record as 4.36%.
As for `C=CC(=O)N1CCCCC1c1noc(C2CC2)n1` (stereo not shown), the Inhibition % is listed as 29.3%.
With `O=C(CN1CCSC1=O)Nc1cccc(Cl)c1`, the Inhibition % was found to be 4.9%.
For `COCC(C)NS(=O)(=O)C=Cc1ccccc1` (stereo not shown), the Inhibition % was determined as 0.573%.
With `O=C(CCl)N1CCc2ccc([N+](=O)[O-])cc21`, the Inhibition % was found to be 5.89%.
Turning to `COc1cc(S(=O)(=O)n2ccnc2C)ccc1Cl`, the Inhibition % is reported as 4.92%.
The same measure for `Cc1nn(C)c(Cl)c1C=CC(=O)N1CCC(CN)CC1.Cl`: 15.7%.
Take `C=CC(=O)N1CCC2(COC2)C1`: the Inhibition % is 10.9%.
The same measure for `C=CC(=O)NCc1nc(-c2ccc(F)cc2)c[nH]1`: 8.67%.
For `C=CC(=O)N[C@@H]1C[C@H]1C1CCOCC1` (racemic), the Inhibition % was determined as 5.38%.
Regarding `N#CC(=Cc1cccc(O)c1)c1nnc2n1CCCCC2`, the Inhibition % is on record as 4.82%.
Turning to `C=CC(=O)N1CCCN(c2ccccc2)CC1`, the Inhibition % came out at 13.3%.
The same measure for `O=C(CCl)N1c2ccccc2SCC1c1ccccc1` (stereo not shown): 1.2%.
The same measure for `C=CC(=O)N1CC(C2CCCC(C)C2)C1` (stereo not shown): 7.43%.
For `CC(CNc1ccc(C#N)nc1)Cn1cccn1` (stereo not shown), the Inhibition % is 6.43%.
On to `CC1CCCN(C(=O)Cn2cnc(C#N)n2)C1` (stereo not shown), for which the Inhibition % came to 3.31%.
The same measure for `C=CC(=O)N1CCOC2(CCOCC2)CC1`: 7.24%; for `C=CC(=O)N1CCC(c2ccccc2)C1C` (stereo not shown): 13.8%; for `CCC1(O)CCN(c2cccnc2C#N)C1` (stereo not shown): 15.2%.
On to `CC1CC(Sc2ccccc2)C(=O)O1` (stereo not shown), for which the Inhibition % came to 1.08%.
The value for `C=CC(=O)NC12CC(C(F)(F)F)(C1)C2` was 4.93%; that for `CC1(C)OB(c2cccc(Br)c2)OC1(C)C` was 1.19%.
On to `C=CC(=O)NC1CCc2ncc(Br)n2C1` (stereo not shown), for which the Inhibition % is reported as 11.8%.
The same measure for `O=C(CCl)NCC(=O)c1cccs1`: 15.1%.
Regarding `Cc1noc(C)c1-c1csc(CN2C(=O)CCC2=O)n1`, the Inhibition % was 23.2%.
On to `C=CC(=O)N1C[C@H](F)C[C@H]1C(=O)N1CCOCC1`, for which the Inhibition % was 10.5%.
As to `O=C(O)c1ccc(CS)cc1`, the Inhibition % came out at 17.3%.
The same measure for `Cc1ccc(NC(=O)CN2CCSC2=O)cc1F`: 3.32%; for `CC(C)(C)C(=O)NNS(=O)(=O)c1ccc(S(=O)(=O)F)cc1`: 6.55%.
Regarding `Cc1cc(N2CCCC2)ccc1NC(=O)CCl`, the Inhibition % is given as 2.66%.
Regarding `CN1CCOC(CNS(=O)(=O)C=Cc2ccccc2)C1` (stereo not shown), the Inhibition % is listed as 6.48%.
The value for `O=C(Nc1cn[nH]c1)Oc1ccccc1` was 32.9%; that for `CCOc1ccc(C(C)(C)C)cc1S(=O)(=O)n1cccn1` was -1.91%.
The value for `Nc1nc(SC2CCOC2=O)nc2sccc12` (stereo not shown) was 10.8%; that for `CC1(C)OB(c2ccsc2C#N)OC1(C)C` was 1.56%.
The value for `COCCNC(=O)C(C#N)=Cc1c(F)cccc1Cl` was 18%; that for `N#Cc1nc(C(=O)O)ccc1Cl` was 7.31%; that for `Sc1nc(CN2CCOCC2)nc2ccccc12` was 5.16%.
Take `Cc1cc(C=C(C#N)C(N)=O)ccc1Oc1cccnc1`: the Inhibition % was determined as 2.77%.
The same measure for `Cn1ccnc1CN(C#N)c1ccc(F)c(Cl)c1`: -3.2%; for `O=C(CCl)N1CC=C(c2c[nH]c3ccccc23)CC1`: 51.5%.
Consider `O=C1OCCC1N1CCCC(c2nc3ccccc3o2)C1` (stereo not shown), for which the Inhibition % was found to be 0.5%.
The same measure for `Cc1ccc(C=CS(=O)(=O)N2CCNC(=O)C2)cc1`: 10.2%; for `COC(=O)c1cccc(NC(=O)CCl)c1`: 25.2%; for `FC(F)(F)c1ccc(C2CO2)cc1` (stereo not shown): 5.75%.
The same measure for `Cc1nn(-c2ccccc2)c(Cl)c1C=CC(=O)N1CCC1`: 22.9%; for `CC(=Cc1ccccc1)C=C(C#N)C(=O)NC1CC1`: 2.94%.
